# Source: PubChem BioAssay AID686979 (National Center for Advancing Translational Sciences (NCATS), 2013)
# Out of some 420,000 compounds screened, about 50,000 (12%) were called active. The inconclusive results got no clear call from the source; some entries with a clear call stand among them for comparison. Calls follow the shape of the dose curve; as a rule, active = well fitted inhibition curve with a large enough effect; inconclusive = small, poorly fitted or top-dose-only effect; inactive = flat fitted curve, though single readings scatter. Potencies of inconclusive entries are left out as doubtful fits.
# Assay: qHTS for Inhibitors of human tyrosyl-DNA phosphodiesterase 1 (TDP1): qHTS in cells in presence of CPT; also: nearly all actives have a fitted effect of over 55% in size
# Conditions: chicken DT40 Tdp1-/-;hTDP1 cells + 20 nM CPT, ATP luminescence, 48 h; series mostly up to 46.2 µM
# Method in brief: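 Chicken DT40 Tdp1-/- cells stably complemented with human TDP1 were seeded at 400 cells/well in medium containing 20 nM camptothecin, exposed to pin-transferred compounds, and grown at 37 °C for at least 48 hr. Viability was read as ATP luminescence.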
# Potency is read from the fitted curve at half-maximal effect; tags tell the direction and shape of the fitted curve.
row,SMILES,Potency
1,Cc1ccc(CS(=O)(=O)Cc2ccc(C(=O)NC3CC3)o2)cc1,"inconclusive [inhibitor, partial curve]"
2,COc1cc(OC)c2c(-c3cccc(-c4sccc4C(C)=O)c3)cc(=O)oc2c1,active: 3.66 µM
3,COc1ccc2[nH]cc(CCNc3ccnc(-c4ccccc4C)n3)c2c1,active: 20.6 µM
4,Cc1ccc(NC(=O)CN(C)C(=O)COC(=O)[C@@H](NC(=O)c2ccccc2F)C(C)C)cc1,inactive
5,Cc1cccc(-c2nc3c(cnn3-c3ccccc3)c(=O)n2-c2ccc(Br)cc2)c1,"inconclusive [inhibitor, single point]"
6,COc1ccc2oc(-c3ccc(C)c(NC(=O)c4ccc(-c5ccccc5[N+](=O)[O-])o4)c3)nc2c1,active: 18.4 µM
7,CCN1C(=O)c2cccc3c(S(=O)(=O)Nc4ccccc4)ccc1c23,"inconclusive [inhibitor, single point]"
8,Cc1cccc(N2CCN(C(=O)CCC(=O)N3CC(C)Oc4ccc(C)cc43)CC2C)c1 (stereo not drawn),active: 16.4 µM
9,O=C(Nc1cccc(S(=O)(=O)N2CCOCC2)c1)c1cnn2c(C(F)F)cc(-c3ccccc3)nc12,"inconclusive [inhibitor, full curve]"
10,Cc1nn(CC(O)COc2ccc3c(c2)CCC3)c(C)c1C (stereo not drawn),"inconclusive [inhibitor, single point]"
11,Cc1ccc(C(=O)O)cc1NC1(c2ccccc2)C(=O)c2ccccc2C1=O,inactive
12,CC1Cn2c(C(=O)NCc3cccc(Br)c3)cc3cccc(c32)S1 (stereo not drawn),"inconclusive [inhibitor, single point]"
13,CCn1nc(C)cc1C(=O)NCC1Cc2cc(C)cc(-c3ccccc3C(=O)OC)c2O1 (stereo not drawn),"inconclusive [inhibitor, single point]"
14,CC(C)(C)C1CCc2nc(NC(=O)c3ccc([N+](=O)[O-])cc3)sc2C1 (stereo not drawn),"inconclusive [inhibitor, partial curve]"
15,COc1ccc(C2=NS(=O)(=O)N(C)C(C(=O)NCc3cccs3)=C2)cc1OC,active: 14.6 µM
16,CC(OC(=O)c1cccc(-n2cnnn2)c1)C(=O)Nc1ccc(F)cc1 (stereo not drawn),"inconclusive [inhibitor, single point]"
17,Cc1c(Cl)cccc1NC(=O)CSc1nc2ncccc2o1,"inconclusive [inhibitor, single point]"
18,CCCn1nc(C(=O)NCC2COc3ccccc3O2)c2ccccc2c1=O (stereo not drawn),"inconclusive [inhibitor, partial curve]"
19,O=C1N/C(=N/Nc2ccccc2)S/C1=C\c1ccccc1,inactive
20,CCc1nc2c(OCc3ccc(F)c(F)c3)cccn2c1N(C)C(=O)c1cccs1,"inconclusive [inhibitor, single point]"
21,Cc1cc(-n2c(C)cc(C(=O)CCl)c2C)no1,active: 1.16 µM
22,COc1ccccc1N1CCN(C(=S)NC(=O)/C=C/c2ccc(F)cc2)CC1,"inconclusive [inhibitor, single point]"
23,CCOC(=O)C1=C(C)NC(SC(C)=O)=NC1c1ccc(OC(C)=O)c(OC)c1 (stereo not drawn),"inconclusive [inhibitor, single point]"

row,SMILES,Potency
1,C=C(C)CNC(=S)N1CCNC(=O)C1CC(=O)OC (stereo not drawn),inactive
2,CC(C)(C)OC(=O)N[C@@H](CCCCNC(=O)OCc1ccccc1)c1nnc([C@H](CCCCNC(=O)OCc2ccccc2)NC(=O)OC(C)(C)C)o1,"inconclusive [inhibitor, partial curve]"
3,COc1ccc(C(CCc2ccc(C)o2)NC(=O)Nc2ccc(OC)cc2OC)cc1 (stereo not drawn),"inconclusive [inhibitor, single point]"
4,COc1cc(NC(=O)[C@@H]2O[C@H](CO)[C@@H](O)[C@H]2O)cc(OC)c1OC,inactive
5,CCC(C)NC(=O)CSc1ccc(NC(C)=O)cc1 (stereo not drawn),inactive
6,C/C=C(/C)C(=O)Nc1cccc(C2=NOC3(C2)C[C@H](C(N)=O)N(C(=O)COc2ccc(Cl)cc2)C3)c1 (stereo partly drawn),"inconclusive [inhibitor, single point]"
7,O=C1Nc2ccccc2N(O)N1c1cc(-c2ccccc2Cl)no1,inactive
8,CCOC(=O)c1c(C)[nH]c(C)c1S(=O)(=O)NCC1CCN(Cc2cccc(Cl)c2)CC1,"inconclusive [inhibitor, single point]"
9,COc1ccccc1CNC(=O)C1CCCN(c2nnc(C)c3c(C)n(-c4ccccc4)nc23)C1 (stereo not drawn),active: 20.6 µM
10,COc1ccccc1C(CNC(=O)c1cccc(S(=O)(=O)Nc2ccc(F)cc2)c1)N1CCCC1 (stereo not drawn),"inconclusive [inhibitor, single point]"
11,CC1=C(C(=O)NC(C)CCc2ccccc2)C2(CCC(C)CC2)OC1=O (stereo not drawn),"inconclusive [inhibitor, single point]"
12,CCOC(=O)C1CCN(C(=O)CCC2CCCC2)CC1,inactive
13,Cc1ccc2[nH]c(CSc3nnc(NC(=O)c4ccccc4F)s3)cc(=O)c2c1,active: 10.3 µM
14,CCc1ccccc1NC(=O)c1sc2nc(C)cc(COC)c2c1N,"inconclusive [inhibitor, single point]"
15,O=C(CNC(=O)c1ccc(Br)o1)NCC(=O)OCc1ccccc1,inactive
16,Cc1cccc(/C=N/NC(=O)c2ccc(NC(=O)c3ccc(Cl)cc3)cc2)n1,"inconclusive [inhibitor, single point]"
17,NS(=O)(=O)c1ccc(CCNC(=O)CCCCCn2c(=S)[nH]c3ccc(Br)cc3c2=O)cc1,"inconclusive [inhibitor, single point]"
18,Cc1ccc(OCc2cc(C(=O)N3CCC(C(O)C(C)C)CC3)no2)cc1C (stereo not drawn),"inconclusive [inhibitor, single point]"
19,Cn1c(=O)c2c(ncn2CCC(=O)N/N=C/c2cccnc2)n(C)c1=O,inactive
20,CCc1ccc(Nc2n[n+](-c3ccccc3)c(-c3ccc(N(CC)CC)cc3)s2)cc1,active: 6.51 µM
21,O=C(CCSCc1cccc(Cl)c1)NCc1ccc(F)cc1Cl,"inconclusive [inhibitor, single point]"
22,Cc1cc(C)cc(NC(=O)CSc2nc3nc(C)cc(C)n3n2)c1,"inconclusive [inhibitor, full curve]"
23,COc1cccc(N(C(=O)c2ccco2)C(C(=O)NC2CCCC2)c2ccc(N(C)C)cc2)c1 (stereo not drawn),"inconclusive [inhibitor, partial curve, poor fit]"

row,SMILES,Potency
1,Cc1ccc(C2CCN(C(=S)Nc3cccc(C)c3)C2)cc1 (stereo not drawn),"inconclusive [inhibitor, single point]"
2,COC(=O)[C@@]1(Cc2ccc(F)cc2)[C@H]2c3cc(C(=O)N(C)C)n(CCN4CCOCC4)c3C[C@H]2CN1C(=O)c1ccccc1,"inconclusive [inhibitor, single point]"
3,CCCCN(C=O)c1c(CC)nc2c(OCc3ccc(C(F)(F)F)cc3)cccn12,active: 11.6 µM
4,CCOC(=O)c1c(C)[nH]c(C(=O)COC(=O)C(C)Oc2ccc(Cl)cc2Cl)c1C (stereo not drawn),inactive
5,O=C(c1cccc(F)c1)N1CCN(S(=O)(=O)Cc2ccccc2)CC1,inactive
6,Cc1ccc(C(=O)Nc2ccccc2C(=O)NC2CCCCC2)cc1S(=O)(=O)N1CCOCC1,"inconclusive [inhibitor, partial curve]"
7,Cc1nc(N2CCN(C)CC2)c2c(C)c(C(=O)Nc3ccc(C)c(F)c3)sc2n1,active: 16.4 µM
8,CC1(C)Cc2c(c(=S)nc(-c3ccccc3)n2CCOCCO)CO1,"inconclusive [inhibitor, partial curve]"
9,Cc1ccc(SCC(=O)N2c3ccccc3Sc3ccccc32)cc1,"inconclusive [inhibitor, single point]"
10,COc1ccc(NC(=O)[C@H](C)NC(N)=O)cc1S(=O)(=O)Nc1cc(C)ccc1Br,inactive
11,COc1ccc(OCc2cc(C(=O)NC(C)Cc3cccnc3)no2)c(Cl)c1 (stereo not drawn),"inconclusive [inhibitor, single point]"
12,COc1ccc(-c2csc(NC(=O)c3ccccc3NS(=O)(=O)c3ccc(C)cc3)n2)cc1,"inconclusive [inhibitor, single point]"
13,O=C(NCc1cccnc1)c1cccc(S(=O)(=O)Nc2cccc(Cl)c2)c1,"inconclusive [inhibitor, single point]"
14,Cc1[nH]c2ccccc2c1C(c1c(C)[nH]c2ccccc12)c1c(C)[nH]c2ccccc12,"inconclusive [inhibitor, single point]"
15,CC(C)CNC(=O)COC(=O)c1cc(Cl)cc(Cl)c1N,inactive
16,COc1ccc(S(=O)(=O)N2CCCC(C(=O)Nc3ccc4c(c3)OCCO4)C2)cc1 (stereo not drawn),active: 20.6 µM
17,COc1cc(C(=O)NNC(=O)c2cccc(Cl)c2)ccc1OCC(=O)N1CCOCC1,inactive
18,COCCCn1c(SCC(=O)Nc2ccc(NC(C)=O)cc2)nc2sc3c(c2c1=O)CCC3,inactive
19,COC(=O)C1=C(COc2ccc(F)cc2)NC(=O)NC1c1ccc(C)cc1C (stereo not drawn),"inconclusive [inhibitor, single point]"
20,COCc1cc(C)nc2sc3c(c12)NC(c1ccc(O)c(OC)c1)N(c1ccccc1)C3=O (stereo not drawn),"inconclusive [inhibitor, single point]"
21,COc1ccc(OCC(=O)N(Cc2cccs2)c2ccc(OC)cc2)cc1,active: 16.4 µM
22,NNc1nc(-c2ccccc2)nc(-c2ccccc2)c1Br,"inconclusive [inhibitor, single point]"
